Source: the supplement of paper PMC3334620
Over roughly 33,000 sequences, “E-score (-0.5 to 0.5)” has its median near -0.043; the highest 2% begin near 0.37. Some of the results follow.

target: T1, Upc2 (UniProt Q12151); test: PBM E-score (8-mer binding enrichment) (E-score (-0.5 to 0.5)); higher = stronger / more preferred TF binding; most listed sequences are background and not binding sites; settings: protein concentration: 200 nM; construct: GST-full length
T1 sequence: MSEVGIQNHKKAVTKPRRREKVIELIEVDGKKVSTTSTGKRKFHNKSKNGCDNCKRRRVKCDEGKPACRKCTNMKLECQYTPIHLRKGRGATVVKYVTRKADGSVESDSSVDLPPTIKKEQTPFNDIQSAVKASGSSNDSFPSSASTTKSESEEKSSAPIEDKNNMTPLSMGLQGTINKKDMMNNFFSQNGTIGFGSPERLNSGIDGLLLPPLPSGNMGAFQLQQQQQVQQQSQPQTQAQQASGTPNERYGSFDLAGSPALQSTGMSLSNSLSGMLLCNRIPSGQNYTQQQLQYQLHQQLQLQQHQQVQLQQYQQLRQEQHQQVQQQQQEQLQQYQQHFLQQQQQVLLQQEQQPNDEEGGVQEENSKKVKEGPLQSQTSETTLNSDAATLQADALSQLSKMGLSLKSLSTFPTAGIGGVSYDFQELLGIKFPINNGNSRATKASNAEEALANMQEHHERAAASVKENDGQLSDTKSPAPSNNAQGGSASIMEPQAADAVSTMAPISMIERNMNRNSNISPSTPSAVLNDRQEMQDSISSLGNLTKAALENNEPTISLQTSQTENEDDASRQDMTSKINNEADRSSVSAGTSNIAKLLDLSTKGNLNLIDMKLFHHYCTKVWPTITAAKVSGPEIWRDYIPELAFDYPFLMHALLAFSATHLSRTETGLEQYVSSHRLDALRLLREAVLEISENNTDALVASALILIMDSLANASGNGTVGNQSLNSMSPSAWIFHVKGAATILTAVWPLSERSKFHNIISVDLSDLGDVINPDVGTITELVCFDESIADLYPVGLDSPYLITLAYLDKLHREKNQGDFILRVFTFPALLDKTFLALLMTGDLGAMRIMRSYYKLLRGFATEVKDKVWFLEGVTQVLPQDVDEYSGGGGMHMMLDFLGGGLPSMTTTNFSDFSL
Method in brief: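 The E-score, a modified Wilcoxon-Mann-Whitney statistic, was computed by the Universal PBM Analysis Suite for every ungapped eight-base word pooled with its reverse complement. Scans behind it were normalised with masliner after bound GST-tagged yeast transcription factors were detected with fluorescent anti-GST. The proteins, at about 100-200 nM, had been applied to universal all-10-mer Agilent arrays made double-stranded by primer extension.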

Sequence	PBM E-score
CGTCCAGA	-0.142
GCATATCC	0.0618
ACGTGTAC	0.231
AGTATAAT	-0.00506
CTCGCCGA	0.0861
ATCGGATC	0.0907
AGGCGTTA	-0.15
CAATCCAA	0.054
CAAAGATA	-0.0625
TACTACCA	0.00692
ACCGTATA	0.478
AGACGGAT	0.0754
ATAGAAAA	0.00696
AAGCCGCT	-0.0951
CAGAGGCA	-0.142
CGAATTCG	0.0977
GAACGCGA	0.176
AGAGCAGA	-0.0123
ATATGTAC	0.147
CGCGCACC	0.0323
CCTGAATA	0.088
CACACAGC	-0.105
AATATTGC	0.24
AATGACGA	-0.0382
AGCGCTCA	0.0243

Sequence	PBM E-score
CCTTGTCA	-0.199
AAATGTGA	-0.0378
AGATACTG	-0.033
ACTCTCAC	-0.136
CATAATAA	0.128
AATTGCGT	0.117
CCAAATGA	0.109
GCAGTCAA	-0.123
AGCTGGGC	-0.21
AGCGGAAT	-0.0346
CGAACGCC	0.0792
GATCATTA	0.0302
ACACGGTC	-0.099
AGTTACAG	-0.052
CACGATAG	-0.187
AATATTTA	0.16
ATGCACTG	-0.118
AAATTCGA	-0.128
GGCATTGA	-0.0844
AGATCGAC	0.0551
TCCACACA	-0.073
CTAAAAAG	-0.104
CAGTGTCG	-0.012
GCCAAGGC	-0.232
AGAACAAT	-0.00179

Sequence	PBM E-score
CGTATAGC	0.483
ATTGGGAG	-0.172
ACCAAAGA	-0.0336
TAGCAATA	0.161
CACTACTC	-0.101
CCAACACC	-0.278
AAAGTGTG	-0.187
AAAACTCC	-0.112
GTCGTAAA	0.477
ATTCCCGC	-0.0396
CCCGCTGA	-0.275
CCCTATTC	-0.046
AGGAGCCG	-0.224
AGAGAACA	-0.0853
ACATAGCC	-0.329
AACTATTC	0.0109
ACTCCACC	-0.147
GGTGGTCA	-0.188
TGTGGAAA	-0.0664
ATCTTTTC	-0.0144
AGGCAGAG	-0.131
AAGCCCTA	-0.0838
CTTAACAC	-0.0502
CCCTGCAA	-0.0508
ACGGGAGT	0.175

Sequence	PBM E-score
CACCTCGC	0.0282
AGTTATTG	-0.102
CAAGCGTA	0.266
GTTATCGA	0.0519
ACTTAAAA	0.0711
ATGCGCGC	-0.00398
ACGGTTGC	0.0783
AAGGGGCC	-0.169
CTGGCCAA	-0.163
CGGCTATC	0.0416
CACATTCC	-0.127
CCCATAGG	-0.0777
GTATCAAA	0.159
CCTTGGCA	-0.286
ATTCCCGG	-0.0911
AGGTAGAG	-0.186
CGGCAGTA	-0.062
ACAGCGAC	0.0109
AAGCTTGC	-0.137
GGACGCTA	-0.14
ACCGCGAC	-0.056
CCGTAGAA	0.118
GGCCCATA	-0.135
TTAAGAAA	0.0858
AAAAATAA	0.0718

Sequence	PBM E-score
CACGTGGG	-0.0926
AGAAAATA	-0.016
CCCGGTCC	-0.168
GCTCAAGC	0.041
AAATCTTC	-0.014
GAATTCCA	-0.0846
ACCTGCCT	-0.13
CTAGATAG	-0.0499
ATACGGAA	0.372
CCGATCGA	0.0772
AGTCACGC	-0.155
TCCCAGGA	-0.18
GATAGAAA	0.0471
TGGCCCCA	-0.258
ACTTGGGC	-0.355
CCTAAGAG	-0.0375
AGAGAACC	-0.188
AACCCCCT	-0.343
CGTTATCA	0.0299
CTTATGAA	-0.00538
TACAGTAA	0.0863
GTTCGAAA	0.12
AAGTTTTA	0.0896
ATAGGTTC	0.0982
AAGCAATC	-0.00105

Sequence	PBM E-score
AAAGTAGC	-0.109
ACTCTGTA	-0.00546
ATGACGGG	-0.153
ATTACATG	0.00974
CATGGAAG	-0.176
GAAATCGA	-9e-05
CCCTTCGA	-0.276
GAGGTTGC	-0.073
AGAACTCC	0.0252
GTGGGGTA	0.045
ACTCGTTG	0.198
TGTTCGAA	0.132
AACATGAA	0.0331
CTCGTTTC	0.452
CGAGGCAC	0.0661
CCGTAATA	0.253
CGAGAGAA	0.113
GGAATTAC	0.175
CGCTCTCA	0.00166
AATAGGAT	0.0842
TACGTTGA	0.249
AGAATCCT	-0.302
TAGTGTCA	0.04
AGCTTCAA	-0.0931
TCCCGGAA	-0.0742

Sequence	PBM E-score
AAGACAGC	-0.222
ATTTTAAC	0.216
ATTCACCC	-0.25
CCCCCTAC	-0.265
CCAATGAA	-0.198
CGTGTATC	0.152
ACCACTGA	0.0535
ATATAGTC	0.0853
GGAGTACC	-0.202
ATGAAATC	-0.0105
ACACCCGA	0.115
GCTGAACC	0.0322
AAGATTCC	-0.0153
AGTATATG	0.0175
CATTGACA	-0.295
CCCTCGTA	0.465
CGCCCGGC	-0.154
AGGGCGTG	-0.0584
GGAACCGA	0.237
ATGACCAT	0.0665
CACGAAGG	0.00451
CTGCATGA	-0.228
AACGACGT	0.408
CCAACGCG	-0.0142
AACGCCAT	-0.173

Sequence	PBM E-score
GCAAACGA	0.462
ACGCGAGA	0.216
CTATCTTC	-0.00165
GAGCAAAC	0.149
GAAGCGGA	-0.0922
AGGACTAT	-0.349
CCCGGCGA	-0.0917
CCCCTAAC	-0.0466
CATCACAG	-0.183
GGATCAAA	-0.0796
AAAGACGA	0.0622
GGATCGCC	-0.0204
GACAGGTA	-0.0135
AGGGAGAG	-0.177
CACAGCAC	-0.222
ACAAGTAC	0.144
GGCTACAC	-0.029
AATTTTCG	0.087
AGGACAAG	-0.0298
CGTATATA	0.458
CTCACAAG	-0.241
GAGATCAA	0.0415
AAGCTGAT	-0.129
CCTATAGA	-0.201
CCCCGAAG	-0.224

Sequence	PBM E-score
ATGTTTCA	-0.0195
GAAGGGAC	-0.24
AAGACCAT	-0.0684
CCGGGACC	-0.137
CGGGATTC	0.125
AACGCTAA	0.0548
CTTTGGTC	0.0127
AGTTCTCC	-0.276
CTAAATCC	0.115
GCTTGTAA	0.0348
ATCCATGG	-0.218
CCTTGGTA	-0.0736
AGCACTAA	0.0655
AGGTAGGC	-0.151
CACGTCGA	-0.104
CATTGAGG	-0.271
AAACTGGG	-0.182
CTATGCCC	-0.0652
ATTACGCA	0.0704
